The chains are these.
B1: CPEB3 Ribozyme (parent)
chain: UAACAGGGGGCCACAGCAGAAGCGUUCACGUCGCAGCCCCUGUCAGAUUCUGGUGAAUCUGCGAAUUCUGCUGUAUAUCUC

The source gives no read counts; variants with many changes may rest on few reads.

Variants of B1 are the subject of the data set. Briefly: self-cleavage, relative activity (ratio to wild type); higher = more cleavage; in vitro, sequencing. In a few lines: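 For each CPEB3 ribozyme variant, relative activity is its cleaved/total read fraction divided by the unmutated ribozyme's. Barcoded error-prone PCR libraries were transcribed by T7 RNA polymerase (5 hours, 37°C) and held in DNase I for 15 min before an EDTA stop, with cleavage occurring throughout. Template-switching reverse transcription and Illumina sequencing were used to read the RNAs. A 5-read minimum applied, and results are the mean of three batches.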
With A5U U26A G42C U54C A64U A75U U80A, the self-cleavage was found to be 0.1.
Next, A5U U54C U69C A77G U80A: 1.08.
In the case of A5G U31C U43C U48C, the self-cleavage is 0.47.
Next, A5U U60C U80A: 0.47; A5U U25A U26A A57G: 0.17.
Next, A5U C11G A28U A35U U41C A64G C81U: 0.04; A5U A18G C40U A45C U58C A77G U80C: 0.05; A5G U51A U54C U76C: 0.59.
Next, A5U A56U U58C: 0.35; A5U A20G U54C U69A: 0.47; A5U A35G G42A U51C U58G: 0.13.
Consider A5U G9C G22A A56U, for which the self-cleavage was 0.47.
Next, A5G U41C U43C A45U A64U: 0.07; A5U U25A U26A: 0.3; A5G U26C A45U C81G: 0.39.
Next, A5U A13C A45G: 1.02; A5U A21C G33A U43C A47G: 0.16; G6A A13U U48C A65U G73A: 0.21.
Next, A5U C29U A47G U72A: 0.17; A5G U41A A47G U49C A56U: 0.12; A5G U25C U74C: 0.35.
With A5U A21G C50A U76G, the self-cleavage is 0.43.
In the case of A5G U51C U69C U80C, the self-cleavage is 0.34.
Next, A5U G9A U54A U67C: 0.16; A5U A15G G63C U74A: 0.88.
Next, A5U A13U A45U A65G U78C: 0.19; A5U A21G C50U A65U: 0.12; A5G U49A U69C: 0.35.
Next, A5U A18G U41C U72A: 0.47; A5U U49A U58C A64G U78C: 0.1; A5U U41C U49A A57G A77G: 0.44.
On to A5U U25C C38G U41C U67C, for which the self-cleavage is 0.06.
Next, A5U C29U A35G U60C U78C: 0.43; A5G U49C U51A G70A: 0.46; A5G U26A A57G: 0.23.
Next, A5U A18C U54G U60C: 0.34; A5U U41A G52A: 0.66; A5U U58A U78C: 0.3.
Next, A5U U25C C62U: 0.23; G6A A20G U78A: 0.09.
A5U A28G A57G U58C A77U: the self-cleavage worked out at 0.17.
Next, A5U U48C U51A: 0.51.
Next, A5U A13U U26A A47U U51C A56G C79A: 0.11.
Next, A5U A13U A20G U43A U54C C68U: 1.11.
As for A5G U41A U48C A64G U72A U80C, the self-cleavage was determined as 0.1.
Turning to A5U A47G U48C U72C, the self-cleavage was determined as 0.61.
Next, A5G U43C U54C A57G U69C: 0.26.
With A5G U69C A75U U78C, the self-cleavage came to 0.21.
Next, A5U A13G U41A U58C A64G U72C: 0.08; A5G U43A U69C U78C: 0.45.
As to A5U A35U U49A, the self-cleavage stood at 0.38.
Next, A5U C12U A13U U54A G63C A65G U76A: 0.68.
Next, A5U U26A C34G A57G A75G: 0.17.
Next, A5G U60C A75U: 0.52; G6A A15G U69C A77C: 0.08; A5G U26C U69C U72A U80G: 0.07.
For the variant A5U U60A C62U U67C U74C U78C, the self-cleavage is 0.31.
Consider A5U A15G A35U U41A U54A, for which the self-cleavage is 0.12.
Next, A5G U26C U51C U60A A65U: 0.31; A5U A18G A35G A57G A64U U78A: 0.57.
Next, A5U A28C U51C: 0.53.
Next, A5G U43C C59U U80C: 0.39.
On to A5G U43A U60C, for which the self-cleavage came out at 0.35.
Next, A5U C11G U26C U41G U49C U67A: 0.07; A5G U60C U69A A77C: 0.09; A5U G9A C29U U49C U54C A75U: 0.05.
Next, A5U A18G U41A U48A: 0.39; A5U A15U U60G: 0.4; A5U A20G A57G U58C U67A: 0.11.
Next, G6A A13G C50A A77U: 0.05.
A5U A56U A64G: the self-cleavage worked out at 0.79.
Next, A5U G24A G70A: 0.13; A5U A28U A45G U69C U78G: 0.68.
Next, A5U A20U U54C A57G: 0.24; A5G U25C U69A: 0.21.
On to A5U U54C A56G U72A U78C, for which the self-cleavage was 0.57.
Consider G6A A18G C29U U48A, for which the self-cleavage is 0.04.
Next, A5U G7U A15G U31C A57G: 0.39; A5U U48C A56G: 0.51; A5G U48C A65U: 0.31.
Next, A5U U25A U26A A35G: 0.42.
Next, A5U G10U C29U U51G G53A: 0.06; A5G U26C U69C U74C: 0.2; A5U A20U C32G G36A A45U A47G A65G: 0.12.
As for A5G U26C A28G U49C U51C U67A, the self-cleavage worked out at 0.
Next, A5U G8U C11U A56G: 0.07.
In the case of A5G U41A G53A U69A, the self-cleavage amounted to 0.28.
Next, A5U G30A U41A A65G U76A: 0.07; A5U A21U A57G A64G U67C C79A: 0.12; A5U U31C C32U: 0.27.
For A5G U43C U51C U60A, the self-cleavage turned out to be 0.39.
Next, A5U A28G C40A: 0.16; A5U C23U A28U U49G: 0.37.
Next, G6A A18G A21G: 0.07.
Next, A5U U58C U60C: 0.19; A5G U51A U58C G61C: 0.12; A5G U41A A45G A64U U69C: 0.31.
In the case of G6A A20U A21G A47G U58C, the self-cleavage was found to be 0.06.
Next, A5U G8U A15G A18G A28G U54G: 0.41; A5U C12A A28G: 0.42; A5G U26C A57U A64G: 0.47.
Next, A5U U25A U60C U76C: 0.09; A5U G30A U41A: 0.2; A5U A15G A47G: 1.01.
Next, A5U A18G A35G U54A: 1.24.
A5U A13G C50A: the self-cleavage worked out at 0.94.
Next, A5U A15G A47G U54C A56U U67A U78A: 0.25.
Next, A5U C12A U49A: 0.86.
As to A5U A18C G42A U60C A64U A75U, the self-cleavage was determined as 0.07.
Next, A5U A35U G61A U72C: 0.13; A5U A28G U51C U74C: 0.79.
Next, A5U A13G U72C: 0.99; A5U A13G U69A U76A: 0.7; A5U A20U A21G U41C A45G U58A: 0.11.
For the variant A5U G24U U31C A45U, the self-cleavage stood at 0.22.
Consider G6A A15G U43A U69A, for which the self-cleavage worked out at 0.11.
A5U A13U U72C: the self-cleavage turned out to be 1.09.
Next, A5U U26A U69C: 0.54; A5G U48C U51A: 0.43.
Regarding A5U U26G U51C, the self-cleavage was 0.39.
Next, A5U A18G U48C U51C: 0.37.
Next, G6A A15G U41C U54C A57C U58C: 0.23.
Next, G6A A18C U26C U41C U60C: 0.06.
As to A5U U58C U72C, the self-cleavage was determined as 0.72.
Next, A5G U26A U69C: 0.17; A5U A13G C40U U54A A65U: 0.14.
Consider A5U A28G U80A, for which the self-cleavage worked out at 1.29.
A5U A13U A21G U25C C29U U41C U74A: the self-cleavage came to 0.13.
Next, A5G U25C U60C: 0.35; A5U A13U U26C U41A: 0.28; A5U G16A U67A: 0.19.
Next, A5U U43C A45C A47G: 0.51; A5U G9A A13U A15C A18U: 0.62.
Next, A5G U26A A35G C79A: 1.15; G6A A13G G30A A47G U66C G73A U78C: 0.04.
A5U C17U G70A U72A: the self-cleavage was 1.23.
Turning to A5U C14A U69C, the self-cleavage was determined as 0.52.
With A5U G16A U31C A45G U49C G61U G70A, the self-cleavage turned out to be 0.01.
Next, A5U A21G A35U U69A: 0.19; A5G U26C U49C U72A: 0.08.
With A5U U26C U51A A56G U66C U76C U80G, the self-cleavage worked out at 0.16.
Next, A5U C40U U51A: 0.94; A5G U31G G33U A35C U76G: 0.23; A5U A20G C32U A35U U43C G52A U60G: 0.08.
Regarding A5U A13G A21G U58G U66C, the self-cleavage was found to be 0.22.
Next, A5G U48C A75G: 0.26; A5U G9U G53A G63A U69A: 0; A5U U26A C79A: 1.24.
Next, A5U U41A U43C A47C G73A: 0.1; A5G U25C U66C: 0.24.
A5U A21U U41C U51A U67A G70A U72A: the self-cleavage is 0.07.
For the variant A5U U49C A65U, the self-cleavage amounted to 0.21.
For the variant A5U G7C A20G A21C U26C A28U, the self-cleavage is 0.15.
Next, A5U G6A C17G C32G U49C A65U: 0.11; A5G U48C U67A U78C: 0.17.
Next, A5U U26A U31C A65G: 0.17; A5U G10A A15G G24A C32A U72C: 0.46; A5U U25C U31C A35U U72C: 0.39.
For the variant A5U A15U A21U U25C U48C C79U, the self-cleavage stood at 0.44.
As for A5U C32A U41C U51C, the self-cleavage was 0.24.
For the variant A5U A18U U80C, the self-cleavage was 0.68.
Next, A5G U26A U54A U69C A77C U78A: 0.29; A5U C11A C37G U43C U69C: 0.24.
Consider A5G U26G A56G U66A U69A, for which the self-cleavage amounted to 0.02.
For A5U U43C G53A, the self-cleavage came to 0.72.
For G6A A20G C23A U76G, the self-cleavage stood at 0.44.
Next, G6A A13U A28U A45U A77U: 0.05.

Values taken from the RNAGym collection of RNA variant scans (doi:10.1093/nar/gkz1192).
